# In PubChem BioAssay AID686979 (National Center for Advancing Translational Sciences (NCATS), 2013):
# In all, about 420,000 compounds went through this assay and about 50,000 (12%) were called active. Inconclusive results (about 26%) are left out. Calls come from the whole dose curve; as a rule, active = well fitted inhibition curve with a large enough effect; inconclusive = small, poorly fitted or top-dose-only effect; inactive = flat fitted curve, though single readings scatter. Only a part is listed here, and it is no random draw. The source holds several records for some structures; these can differ, active in one and inactive in another.
# Assay: qHTS for Inhibitors of human tyrosyl-DNA phosphodiesterase 1 (TDP1): qHTS in cells in presence of CPT; note: nearly all actives have a fitted effect of over 55% in size
# Conditions: chicken DT40 Tdp1-/-;hTDP1 cells + 20 nM CPT, ATP luminescence, 48 h; series mostly up to 46.2 µM; activity change, negative = growth inhibition: at the top concentration
# Method in brief: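 Chicken DT40 Tdp1-/- cells complemented with human TDP1, 400 cells/well, exposed to compounds plus 20 nM camptothecin for at least 48 h at 37 C; viability read as ATP content by CellTiter-Glo luminescence.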
# % is set by controls: 0 for no effect and ±100 for the full control effect; potency is the fitted concentration of half-maximal effect.
Structure (SMILES),"activity change, negative = growth inhibition",Potency
CCC(c1ccccc1)c1nnc(NC(=O)c2ccco2)s1 (centres undefined),inactive: 0.867%,
COc1cc(CNC(=O)CCCCCCC(C)C)ccc1O,inactive: -6.54%,
O=C1C=CC2=C3c4cc(O)c(O)cc4CC3(O)COC2=C1O (centres undefined),,inactive
Cc1ccc(C2=NN=C(NC(=O)CSc3nnc4c5ccccc5n(C)c4n3)SC2)cc1,,active: 10.3 µM
Cc1ccc([N+](=O)[O-])c2c1C(N1CCCCC1)C(C)(C)O2 (centres undefined),inactive: -3.37%,
Cc1ccnc(NC(=O)CN2C(=O)c3ccccc3C2=O)c1,inactive: 45%,
CC(C)C[C@@H](CN=[N+]=[N-])N1CCN(Cc2ccccc2)CCC1=O,inactive: -14.2%,
Cc1ccc2c(c1)N(S(=O)(=O)c1ccc3c(c1)NC(=O)CC(=O)N3)CCO2,inactive: -10.2%,
O=C1O[C@H]([C@@H](O)CO)C(O)=C1O,,inactive
CN(C)c1ccc(/C=C/c2cc[n+](C)c3ccc4ccccc4c23)cc1,,active: 0.0891 µM
Cc1cc(=O)n(CC(=O)N2CCN(c3ccc(F)cc3)CC2)c2c1c(C)nn2C,,active: 18.4 µM
O=C1CC[C@@H](O)CCN1CC[C@H](Sc1ccccc1)c1ccccc1,inactive: -26.4%,
COc1ccccc1N1CCN(CCN2C(=O)CC3(CCCC3)CC2=O)CC1,,inactive
CC(C)C(Cl)=NOC(=O)Nc1ccc(S(N)(=O)=O)cc1,,active: 1.16 µM
C=CCNC(=O)C12CCC(C)(C(=O)C1Br)C2(C)C (centres undefined),inactive: -0.767%,
COc1ccc(N2CCN(C(=O)CCC(=O)NNc3nc4ccccc4c4nc(C)nn34)CC2)cc1,inactive: -4.91%,
COc1ccc(CNC(=O)[C@@H]2CC=C[C@@H]3CCN(Cc4ccccc4)C(=O)[C@@H]32)cc1,inactive: -23.3%,
CCOc1ccccc1C(=O)Nc1nnc(COC)s1,inactive: -0.0325%,
COc1ccc(Cl)cc1NC(=O)CN(C)CC(=O)N1CC(=O)Nc2ccccc21,inactive: -25.9%,
OCC[C@H]1C[C@@H](O)[C@H](O)[C@]2(Cc3ccccc3O2)O1,inactive: 14.6%,
CC(=O)Nc1ccc(N2C(=O)CSC2c2ccc([N+](=O)[O-])cc2)cc1 (centres undefined),inactive: 36%,
CCO[C@H]1OC(C(=O)N2CCCCCCC2)=C[C@@H](c2csc3ccccc23)[C@@H]1CCCO,inactive: -28.3%,
COc1ccc(CC(=O)c2ccc(O)cc2O)cc1,inactive: -21.2%,
COc1ccc(N2CCN(C(=O)Nc3ccccc3Cl)CC2)cc1,inactive: -18.7%,
CCOC(=O)N1CCN(S(=O)(=O)N2CCCC(C(=O)NCc3ccc(OC)cc3OC)C2)CC1 (centres undefined),inactive: -27.5%,

Structure (SMILES),"activity change, negative = growth inhibition",Potency
CC(=O)c1cc(-c2ccccc2)n(CCC(=O)NC2CCCCC2)c1C,inactive: 4.76%,
CCCCOc1ccc(OCCCN2CCOCC2)cc1,,inactive
CC(C)CCNC(=O)C1CCC(CNS(=O)(=O)c2cccc3nsnc23)CC1 (centres undefined),inactive: -23.8%,
CN1N=C2c3ccccc3CCC2C1c1ccc(Cl)cc1 (centres undefined),inactive: 33.4%,
CC(=O)Nc1ccc(S(=O)(=O)NCc2ccc(C(=O)NCc3ccc(Cl)cc3)cc2)cc1,inactive: -19.4%,
CCOC(=O)c1cc2c(ccn2C)n1CC(=O)N(CC)CC,inactive: 5.74%,
COc1ccc(-c2cc(C(=O)NC(C)c3ccccn3)c3ccccc3n2)cc1OC (centres undefined),,active: 23.1 µM
COc1ccccc1CN1CCCC(n2cc(C(=O)N3CCCC3)nn2)C1 (centres undefined),inactive: 41.9% [at 9.04 µM],
CCN(Cc1ccccc1)S(=O)(=O)c1c(C)n(C)c(=O)n(C)c1=O,inactive: 2.51%,
Cn1c2c(c(=O)n(C)c1=O)C(c1cccc(F)c1)C(C#N)=C(N)O2 (centres undefined),inactive: 12.8%,
Cc1ccc(O)c(C(=O)CC(=O)c2ccc(Cl)cc2)c1,,active: 7.31 µM
CN(C)c1ccc(C(=S)N2CCN(C(=S)Nc3ccccc3)CC2)cc1,inactive: 1.01%,
Cc1c(C)n(C)c2ccc(C(=O)N3CCN(c4ccccc4)CC3)cc12,inactive: -26.6%,
Cc1ccc(C2=N/C(=C/c3cccs3)C(=O)N2Nc2ccccc2)cc1,inactive: -17.9%,
COC(=O)c1cc2occc2n1Cc1cccc(C)c1,inactive: -10.7%,
CC[C@]12CCCN3CCc4c(n(c5ccccc45)[C@@](O)(C(=O)OC)C1)[C@@H]32,,inactive
Cc1cc(OC(=O)C2CC2)c([N+](=O)[O-])c(=O)[nH]1,inactive: 40.2%,
O=C(CCC(=O)c1cccs1)Nc1ncccc1O,inactive: 16.2%,
Cc1nnc(NC(=O)CSc2nc(C(C)C)nc3ccccc23)s1,,active: 6.51 µM
C[C@@H]1CN([C@H](C)CO)C(=O)CCCn2cc(nn2)CO[C@H]1CN(C)S(=O)(=O)c1ccc2ccccc2c1,inactive: -17%,
CC(O)(C(=O)Nc1ccc(S(=O)(=O)c2ccccc2)cc1)C(F)(F)F (centres undefined),inactive: -27.1%,
O=C(NC1CC1)C1=C[C@H](c2coc3ccccc3c2=O)C[C@H](OCc2ccc(CO)cc2)O1,inactive: -14%,
O=C(CNC(=O)c1cccs1)NCC(=O)OCc1c(Cl)cccc1Cl,inactive: 1%,
COc1cc(C(C)=O)ccc1COc1ccc(C(=O)OCC(N)=O)cc1OC,inactive: 36.9%,
